Measurements taken from article PMC9911399, “Two distinct binding modes provide the RNA-binding protein RbFox with extraordinary sequence specificity”.
Numbering of substitutions follows the chain as printed; changes in the protein carry UniProt numbers. Some of the results follow.

T1: RBFOX1 RRM (Homo sapiens, UniProt Q9NWB1 109-208)
T1 sequence: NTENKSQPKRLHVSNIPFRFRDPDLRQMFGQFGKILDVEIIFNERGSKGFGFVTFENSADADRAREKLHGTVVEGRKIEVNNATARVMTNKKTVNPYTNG

B1: GUCCUGC (DNA:RNA)
RNA: GGGAGACCGGAAUUCAGAUUGUCCGUCCUGCUUAAAUCCCGUCGUAGCCACCA
DNA 1: CAATCTGAATTCCGGTCTCCC
DNA 2: TGGTGGCTACGACGGGATT
B2: UAAAGUG (DNA:RNA)
RNA: GGGAGACCGGAAUUCAGAUUGUCCUAAAGUGUUAAAUCCCGUCGUAGCCACCA
DNA 1: CAATCTGAATTCCGGTCTCCC
DNA 2: TGGTGGCTACGACGGGATT
B3: UCUAAGC (DNA:RNA)
RNA: B1 RNA with G25U, U26C, C27U, C28A, U29A
DNA 1: CAATCTGAATTCCGGTCTCCC
DNA 2: TGGTGGCTACGACGGGATT
B4: ACCCGCU (DNA:RNA)
RNA: B1 RNA with G25A, U26C, U29G, G30C, C31U
DNA 1: CAATCTGAATTCCGGTCTCCC
DNA 2: TGGTGGCTACGACGGGATT
B5: GGAAUUU (DNA:RNA)
RNA: B2 RNA with U25G, A26G, G29U, G31U
DNA 1: CAATCTGAATTCCGGTCTCCC
DNA 2: TGGTGGCTACGACGGGATT
B6: UGGAGUA (DNA:RNA)
RNA: B2 RNA with A26G, A27G, G31A
DNA 1: CAATCTGAATTCCGGTCTCCC
DNA 2: TGGTGGCTACGACGGGATT
B7: CGCUCCG (DNA:RNA)
RNA: B1 RNA with G25C, U26G, C28U, U29C, G30C, C31G
DNA 1: CAATCTGAATTCCGGTCTCCC
DNA 2: TGGTGGCTACGACGGGATT
B8: CUCGCAC (DNA:RNA)
RNA: B1 RNA with G25C, C28G, U29C, G30A
DNA 1: CAATCTGAATTCCGGTCTCCC
DNA 2: TGGTGGCTACGACGGGATT
B9: GUACUGC (DNA:RNA)
RNA: B1 RNA with C27A
DNA 1: CAATCTGAATTCCGGTCTCCC
DNA 2: TGGTGGCTACGACGGGATT
B10: UUAAGGU (DNA:RNA)
RNA: B2 RNA with A26U, U30G, G31U
DNA 1: CAATCTGAATTCCGGTCTCCC
DNA 2: TGGTGGCTACGACGGGATT
B11: CCUAGGA (DNA:RNA)
RNA: B2 RNA with U25C, A26C, A27U, U30G, G31A
DNA 1: CAATCTGAATTCCGGTCTCCC
DNA 2: TGGTGGCTACGACGGGATT
B12: AUCGUAG (DNA:RNA)
RNA: B1 RNA with G25A, C28G, G30A, C31G
DNA 1: CAATCTGAATTCCGGTCTCCC
DNA 2: TGGTGGCTACGACGGGATT
B13: GUCCUCG (DNA:RNA)
RNA: B1 RNA with G30C, C31G
DNA 1: CAATCTGAATTCCGGTCTCCC
DNA 2: TGGTGGCTACGACGGGATT
B14: AUGGUAU (DNA:RNA)
RNA: B1 RNA with G25A, C27G, C28G, G30A, C31U
DNA 1: CAATCTGAATTCCGGTCTCCC
DNA 2: TGGTGGCTACGACGGGATT
B15: CGUUAAG (DNA:RNA)
RNA: B2 RNA with U25C, A26G, A27U, A28U, G29A, U30A
DNA 1: CAATCTGAATTCCGGTCTCCC
DNA 2: TGGTGGCTACGACGGGATT
B16: CAUUCCC (DNA:RNA)
RNA: B1 RNA with G25C, U26A, C27U, C28U, U29C, G30C
DNA 1: CAATCTGAATTCCGGTCTCCC
DNA 2: TGGTGGCTACGACGGGATT
B17: ACUCAUG (DNA:RNA)
RNA: B2 RNA with U25A, A26C, A27U, A28C, G29A
DNA 1: CAATCTGAATTCCGGTCTCCC
DNA 2: TGGTGGCTACGACGGGATT
B18: GAAGUCC (DNA:RNA)
RNA: B1 RNA with U26A, C27A, C28G, G30C
DNA 1: CAATCTGAATTCCGGTCTCCC
DNA 2: TGGTGGCTACGACGGGATT
B19: ACCAGAA (DNA:RNA)
RNA: B2 RNA with U25A, A26C, A27C, U30A, G31A
DNA 1: CAATCTGAATTCCGGTCTCCC
DNA 2: TGGTGGCTACGACGGGATT
B20: AUAUUUG (DNA:RNA)
RNA: B2 RNA with U25A, A26U, A28U, G29U
DNA 1: CAATCTGAATTCCGGTCTCCC
DNA 2: TGGTGGCTACGACGGGATT
B21: UCCACGC (DNA:RNA)
RNA: B1 RNA with G25U, U26C, C28A, U29C
DNA 1: CAATCTGAATTCCGGTCTCCC
DNA 2: TGGTGGCTACGACGGGATT
B22: CCGCAAG (DNA:RNA)
RNA: B1 RNA with G25C, U26C, C27G, U29A, G30A, C31G
DNA 1: CAATCTGAATTCCGGTCTCCC
DNA 2: TGGTGGCTACGACGGGATT
B23: CAGUAGG (DNA:RNA)
RNA: B2 RNA with U25C, A27G, A28U, G29A, U30G
DNA 1: CAATCTGAATTCCGGTCTCCC
DNA 2: TGGTGGCTACGACGGGATT
B24: GGCGCGG (DNA:RNA)
RNA: B1 RNA with U26G, C28G, U29C, C31G
DNA 1: CAATCTGAATTCCGGTCTCCC
DNA 2: TGGTGGCTACGACGGGATT
B25: GGGAGCC (DNA:RNA)
RNA: B1 RNA with U26G, C27G, C28A, U29G, G30C
DNA 1: CAATCTGAATTCCGGTCTCCC
DNA 2: TGGTGGCTACGACGGGATT
B26: GCUGUCU (DNA:RNA)
RNA: B1 RNA with U26C, C27U, C28G, G30C, C31U
DNA 1: CAATCTGAATTCCGGTCTCCC
DNA 2: TGGTGGCTACGACGGGATT
B27: CGCCAGU (DNA:RNA)
RNA: B1 RNA with G25C, U26G, U29A, C31U
DNA 1: CAATCTGAATTCCGGTCTCCC
DNA 2: TGGTGGCTACGACGGGATT
B28: AAUCUCC (DNA:RNA)
RNA: B1 RNA with G25A, U26A, C27U, G30C
DNA 1: CAATCTGAATTCCGGTCTCCC
DNA 2: TGGTGGCTACGACGGGATT
B29: GGAUACU (DNA:RNA)
RNA: B1 RNA with U26G, C27A, C28U, U29A, G30C, C31U
DNA 1: CAATCTGAATTCCGGTCTCCC
DNA 2: TGGTGGCTACGACGGGATT
B30: GCAACCG (DNA:RNA)
RNA: B2 RNA with U25G, A26C, G29C, U30C
DNA 1: CAATCTGAATTCCGGTCTCCC
DNA 2: TGGTGGCTACGACGGGATT
B31: UAUAAGG (DNA:RNA)
RNA: B2 RNA with A27U, G29A, U30G
DNA 1: CAATCTGAATTCCGGTCTCCC
DNA 2: TGGTGGCTACGACGGGATT

The binders below were run against T1, RBFOX1 RRM (assay: EMSA; HiTS-Eq, 1 nM pool, 10 min; buffer printed only for the single-RNA assays: 10 mM Tris pH 7.5, 150 mM NaCl, 3.4 mM EDTA, 0.001% NP-40, 30 C). Conditions: tags: His6 N-terminal (pET28a); label: 5' 32P.
In short: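 Relative association constants, normalised to the cognate motif, were derived by comparing read counts of each RNA species with those of the control reaction. The RNA sequenced was the free fraction, separated by 8% native PAGE after a 10 min equilibration in 50 µL of 1 nM 5′-radiolabelled RNA (7 randomized nucleotides) with increasing concentrations of purified wild-type or mutant RbFox RRM.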

First: B1
Second: B2
The binding signal of the first is higher: 0.0203 KA relative to UGCAUGU for the first, 0.00935 KA relative to UGCAUGU for the second.

Compared with B3, B4 is lower in binding signal: 0.00771 KA relative to UGCAUGU for the first, 0.00342 KA relative to UGCAUGU for the second.

First: B5
Second: B6
The binding signal of the first is higher: 0.0185 KA relative to UGCAUGU for the first, 0.0179 KA relative to UGCAUGU for the second.

First: B7
Second: B8
The binding signal of the first is lower: 0.00772 KA relative to UGCAUGU for the first, 0.0113 KA relative to UGCAUGU for the second.

First: B9
Second: B10
The binding signal of the first is higher: 0.017 KA relative to UGCAUGU for the first, 0.0121 KA relative to UGCAUGU for the second.

First: B11
Second: B12
The binding signal of the first is higher: 0.00895 KA relative to UGCAUGU for the first, 0.00756 KA relative to UGCAUGU for the second.

First: B13
Second: B14
The binding signal of the first is higher: 0.0155 KA relative to UGCAUGU for the first, 0.00785 KA relative to UGCAUGU for the second.

Compared with B15, B16 is lower in binding signal: 0.00898 KA relative to UGCAUGU for the first, 0.00107 KA relative to UGCAUGU for the second.

First: B17
Second: B18
The binding signal of the first is lower: 0.00349 KA relative to UGCAUGU for the first, 0.00952 KA relative to UGCAUGU for the second.

Compared with B19, B20 is higher in binding signal: 0.00183 KA relative to UGCAUGU for the first, 0.0099 KA relative to UGCAUGU for the second.

First: B21
Second: B22
The binding signal of the first is lower: 0.00643 KA relative to UGCAUGU for the first, 0.0135 KA relative to UGCAUGU for the second.

First: B23
Second: B24
The binding signal of the first is lower: 0.00953 KA relative to UGCAUGU for the first, 0.0251 KA relative to UGCAUGU for the second.

First: B25
Second: B26
The binding signal of the first is higher: 0.0283 KA relative to UGCAUGU for the first, 0.0156 KA relative to UGCAUGU for the second.

First: B27
Second: B28
The binding signal of the first is higher: 0.0104 KA relative to UGCAUGU for the first, 0.00363 KA relative to UGCAUGU for the second.

Compared with B29, B30 is lower in binding signal: 0.00938 KA relative to UGCAUGU for the first, 0.00908 KA relative to UGCAUGU for the second.

With B31 the binding signal was 0.00507 KA relative to UGCAUGU.
